The supplement of paper PMC8728848
Some of the results follow.

Columns and labels:
Test in all cases: glycan array binding signal (z-score within array); higher = stronger binding
Settings in all cases: glycan notation: IUPAC condensed, linker removed
Fuc(a1-2)Gal = biological target: Fuc(a1-2)Gal
In short: (§1)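 Arrays were curated from the Consortium for Functional Glycomics database, 3228 in total, and kept only where the protein sequence was available. Binding is expressed as a within-array Z-score. This score was averaged across arrays of the same protein sequence at different concentrations or buffers and across linkers, and negative values can be read as non-binding.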

Fuc(a1-2)Gal(b1-3)GalNAc = biological target: Fuc(a1-2)Gal(b1-3)GalNAc
In short: as §1

[1] = biological target: Fuc(a1-2)Gal(b1-3)GalNAc(a1-3)[Fuc(a1-2)]Gal(b1-4)Glc
In short: as §1

[2] = biological target: Fuc(a1-2)Gal(b1-3)GalNAc(a1-3)[Fuc(a1-2)]Gal(b1-4)GlcNAc
In short: as §1

[3] = biological target: Fuc(a1-2)Gal(b1-3)GalNAc(b1-3)Gal
In short: as §1

[4] = biological target: Fuc(a1-2)Gal(b1-3)GalNAc(b1-3)Gal(a1-4)Gal(b1-4)Glc
In short: as §1

[5] = biological target: Fuc(a1-2)Gal(b1-3)GalNAc(b1-4)[Neu5Ac(a2-3)]Gal(b1-4)Glc
In short: as §1

Fuc(a1-2)Gal(b1-3)GlcNAc = biological target: Fuc(a1-2)Gal(b1-3)GlcNAc
In short: as §1

[6] = biological target: Fuc(a1-2)Gal(b1-3)GlcNAc(b1-2)Man(a1-3)[Fuc(a1-2)Gal(b1-3)GlcNAc(b1-2)Man(a1-6)]Man(b1-4)GlcNAc(b1-4)GlcNAc
In short: as §1

[7] = biological target: Fuc(a1-2)Gal(b1-3)GlcNAc(b1-2)Man(a1-3)[Fuc(a1-2)Gal(b1-3)GlcNAc(b1-2)Man(a1-6)]Man(b1-4)GlcNAc(b1-4)[Fuc(a1-6)]GlcNAc
In short: as §1

[8] = biological target: Fuc(a1-2)Gal(b1-3)GlcNAc(b1-3)Gal(b1-4)Glc
In short: as §1

[9] = biological target: Fuc(a1-2)Gal(b1-3)GlcNAc(b1-3)GalNAc
In short: as §1

[10] = biological target: Fuc(a1-2)Gal(b1-3)GlcNAc(b1-3)[Fuc(a1-2)Gal(b1-3)GlcNAc(b1-6)]GalNAc
In short: as §1

[11] = biological target: Fuc(a1-2)Gal(b1-3)GlcNAc(b1-3)[Gal(b1-4)GlcNAc(b1-6)]Gal(b1-4)Glc
In short: as §1

[12] = biological target: Fuc(a1-2)Gal(b1-3)GlcNAc(b1-3)[Neu5Ac(a2-6)Gal(b1-4)GlcNAc(b1-6)]Gal(b1-4)Glc
In short: as §1

[13] = biological target: Fuc(a1-2)Gal(b1-3)GlcNAc6S
In short: as §1

[14] = biological target: Fuc(a1-2)Gal(b1-3)[Fuc(a1-4)]GlcNAc
In short: as §1

[15] = biological target: Fuc(a1-2)Gal(b1-3)[Fuc(a1-4)]GlcNAc(b1-2)Man(a1-3)[Fuc(a1-2)Gal(b1-3)[Fuc(a1-4)]GlcNAc(b1-2)Man(a1-3)]Man(b1-4)GlcNAc(b1-4)GlcNAc
In short: as §1

[16] = biological target: Fuc(a1-2)Gal(b1-3)[Fuc(a1-4)]GlcNAc(b1-2)Man(a1-3)[Fuc(a1-2)Gal(b1-3)[Fuc(a1-4)]GlcNAc(b1-2)Man(a1-6)]Man(b1-4)GlcNAc(b1-4)[Fuc(a1-6)]GlcNAc(b1-4)[Fuc(a1-6)]GlcNAc
In short: as §1

[17] = biological target: Fuc(a1-2)Gal(b1-3)[Fuc(a1-4)]GlcNAc(b1-3)[Fuc(a1-3)[Gal(b1-4)]GlcNAc(b1-6)]Gal(b1-4)Glc
In short: as §1

[18] = biological target: Fuc(a1-2)Gal(b1-3)[Fuc(a1-4)]GlcNAc(b1-3)[Gal(b1-4)GlcNAc(b1-6)]Gal(b1-4)Glc
In short: as §1

Fuc(a1-2)Gal(b1-4)Glc = biological target: Fuc(a1-2)Gal(b1-4)Glc
In short: as §1

Fuc(a1-2)Gal(b1-4)Glc6S = biological target: Fuc(a1-2)Gal(b1-4)Glc6S
In short: as §1

Fuc(a1-2)Gal(b1-4)GlcNAc = biological target: Fuc(a1-2)Gal(b1-4)GlcNAc
In short: as §1

[19] = biological target: Fuc(a1-2)Gal(b1-4)GlcNAc(b1-2)Man
In short: as §1

[20] = biological target: Fuc(a1-2)Gal(b1-4)GlcNAc(b1-2)Man(a1-3)[Fuc(a1-2)Gal(b1-4)GlcNAc(b1-2)Man(a1-6)]Man(b1-4)GlcNAc(b1-4)GlcNAc
In short: as §1

[21] = biological target: Fuc(a1-2)Gal(b1-4)GlcNAc(b1-2)Man(a1-3)[Fuc(a1-2)Gal(b1-4)GlcNAc(b1-2)Man(a1-6)]Man(b1-4)GlcNAc(b1-4)[Fuc(a1-6)]GlcNAc
In short: as §1

[22] = biological target: Fuc(a1-2)Gal(b1-4)GlcNAc(b1-2)[Fuc(a1-2)Gal(b1-4)GlcNAc(b1-4)]Man(a1-3)[Fuc(a1-2)Gal(b1-4)GlcNAc(b1-2)Man(a1-6)]Man(b1-4)GlcNAc(b1-4)GlcNAc
In short: as §1

[23] = biological target: Fuc(a1-2)Gal(b1-4)GlcNAc(b1-3)Gal(b1-4)GlcNAc
In short: as §1

[24] = biological target: Fuc(a1-2)Gal(b1-4)GlcNAc(b1-3)Gal(b1-4)GlcNAc(b1-2)Man(a1-3)[Fuc(a1-2)Gal(b1-4)GlcNAc(b1-3)Gal(b1-4)GlcNAc(b1-2)Man(a1-6)]Man(b1-4)GlcNAc(b1-4)GlcNAc
In short: as §1

[25] = biological target: Fuc(a1-2)Gal(b1-4)GlcNAc(b1-3)Gal(b1-4)GlcNAc(b1-3)Gal(b1-4)GlcNAc
In short: as §1

[26] = biological target: Fuc(a1-2)Gal(b1-4)GlcNAc(b1-3)GalNAc
In short: as §1

[27] = biological target: Fuc(a1-2)Gal(b1-4)GlcNAc(b1-3)[Fuc(a1-2)Gal(b1-4)GlcNAc(b1-6)]GalNAc
In short: as §1

[28] = biological target: Fuc(a1-2)Gal(b1-4)GlcNAc(b1-3)[Fuc(a1-3)[Gal(b1-4)]GlcNAc(b1-6)]Gal(b1-4)Glc
In short: as §1

[29] = biological target: Fuc(a1-2)Gal(b1-4)GlcNAc(b1-6)GalNAc
In short: as §1

[30] = biological target: Fuc(a1-2)Gal(b1-4)GlcNAc6S
In short: as §1

[31] = biological target: Fuc(a1-2)Gal(b1-4)[Fuc(a1-3)]GlcNAc
In short: as §1

[32] = biological target: Fuc(a1-2)Gal(b1-4)[Fuc(a1-3)]GlcNAc(b1-2)Man(a1-3)[Fuc(a1-2)Gal(b1-4)[Fuc(a1-3)]GlcNAc(b1-2)Man(a1-6)]Man(b1-4)GlcNAc(b1-4)[Fuc(a1-6)]GlcNAc
In short: as §1

[33] = biological target: Fuc(a1-2)Gal(b1-4)[Fuc(a1-3)]GlcNAc(b1-2)[Fuc(a1-2)Gal(b1-4)[Fuc(a1-3)]GlcNAc(b1-4)]Man(a1-3)[Fuc(a1-2)Gal(b1-4)[Fuc(a1-3)]GlcNAc(b1-2)Man(a1-6)]Man(b1-4)GlcNAc(b1-4)GlcNAc
In short: as §1

[34] = biological target: Fuc(a1-2)Gal(b1-4)[Fuc(a1-3)]GlcNAc(b1-3)Gal(b1-4)[Fuc(a1-3)]GlcNAc
In short: as §1

[35] = biological target: Fuc(a1-2)Gal(b1-4)[Fuc(a1-3)]GlcNAc(b1-3)Gal(b1-4)[Fuc(a1-3)]GlcNAc(b1-3)Gal(b1-4)[Fuc(a1-3)]GlcNAc
In short: as §1

[36] = biological target: Fuc(a1-2)Gal(b1-4)[Fuc(a1-3)]GlcNAc(b1-3)GalNAc
In short: as §1

[37] = biological target: Fuc(a1-2)Gal(b1-4)[Fuc(a1-3)]GlcNAc(b1-3)[Neu5Ac(a2-6)Gal(b1-4)GlcNAc(b1-6)]Gal(b1-4)Glc
In short: as §1

[38] = biological target: Fuc(a1-2)Gal3S(b1-4)GlcNAc
In short: as §1

[39] = biological target: Fuc(a1-2)Gal6S(b1-3)GlcNAc
In short: as §1

B1: PX9961U-pdi-543-24-543 (Parabacteroides distasonis) (protein)
chain: EEPVGEFLPGQVESEENIEGIVTGAYAVLDGYYASDAINSGCSNWQFGDVVSDDAYKGGGGTGDQNQIHLMEIFNANPTGIDFEARWAALYEGIKRCNQAIRLLNGSEVKNKEQRLAEMRFLRGHYYFNLKIIYNQIPWIDETLVDPNEYNKKSNIEFSSDQLWEKILEEFSAAYKVLPESQADYGRPTKMAARAYMAKVYLYQSKWKECLEACDEVIQSGKYELFPDFRNVFLPENDNCSEIIFAIQLSINDGSPNNENGSYGDRLLPPGGPYPVYGFLRPTQNLVNAYKTDVKGLPYNDGKDVSENDYVDVRLDHTLARPNIPFMDVQLYDWTPREASVYGPYSPKKRLVSLNSTYYSPIWPYVNALNFYVIRYADLLLWRAEAAIETGDLETGRKYINMIRERAKNTQHVKTMDQSQDAANYKVGVYDEPFKSKNEAVQALRMERRLEMAHEGIRFFDLVRWGVADEVINAYIAKEKVFRSHLQNAHFVKGKHEYFPIPQSMIDICGTEVMKQNPGY
glycan array binding signal (z-score) (Fuc(a1-2)Gal): -0.431
glycan array binding signal (z-score) (Fuc(a1-2)Gal(b1-3)GalNAc): -0.397
glycan array binding signal (z-score) [1]: -0.412
glycan array binding signal (z-score) [2]: -0.411
glycan array binding signal (z-score) [3]: -0.399
glycan array binding signal (z-score) [4]: -0.25
glycan array binding signal (z-score) [5]: -0.337
glycan array binding signal (z-score) (Fuc(a1-2)Gal(b1-3)GlcNAc): -0.324
glycan array binding signal (z-score) [6]: 7.29
glycan array binding signal (z-score) [7]: -0.341
glycan array binding signal (z-score) [8]: -0.353
glycan array binding signal (z-score) [9]: -0.396
glycan array binding signal (z-score) [10]: 1.45
glycan array binding signal (z-score) [11]: 2.71
glycan array binding signal (z-score) [12]: -0.068
glycan array binding signal (z-score) [13]: 0.244
glycan array binding signal (z-score) [14]: -0.46
glycan array binding signal (z-score) [15]: -0.341
glycan array binding signal (z-score) [16]: -0.292
glycan array binding signal (z-score) [17]: -0.209
glycan array binding signal (z-score) [18]: -0.272
glycan array binding signal (z-score) (Fuc(a1-2)Gal(b1-4)Glc): -0.369
glycan array binding signal (z-score) (Fuc(a1-2)Gal(b1-4)Glc6S): -0.456
glycan array binding signal (z-score) (Fuc(a1-2)Gal(b1-4)GlcNAc): -0.217
glycan array binding signal (z-score) [19]: -0.363
glycan array binding signal (z-score) [20]: 2.83
glycan array binding signal (z-score) [21]: -0.384
glycan array binding signal (z-score) [22]: -0.377
glycan array binding signal (z-score) [23]: -0.463
glycan array binding signal (z-score) [24]: -0.241
glycan array binding signal (z-score) [25]: -0.371
glycan array binding signal (z-score) [26]: -0.239
glycan array binding signal (z-score) [27]: -0.049
glycan array binding signal (z-score) [28]: -0.364
glycan array binding signal (z-score) [29]: -0.147
glycan array binding signal (z-score) [30]: -0.303
glycan array binding signal (z-score) [31]: -0.363
glycan array binding signal (z-score) [32]: -0.238
glycan array binding signal (z-score) [33]: -0.121
glycan array binding signal (z-score) [34]: -0.427
glycan array binding signal (z-score) [35]: -0.3
glycan array binding signal (z-score) [36]: 3.47
glycan array binding signal (z-score) [37]: -0.374
glycan array binding signal (z-score) [38]: -0.479
glycan array binding signal (z-score) [39]: -0.437
